From US20220220215A1 (CRESCENDO BIOLOGICS, published 2022) come the findings set out here.

This assay concerns the target human CD137 expressed on cells (Jurkat human CD137 NF-kB luciferase reporter cells; human CD8+ T cells) (human, UniProt Q07011 24-255). The experiment in a line: cell-based or functional assay.

B1: TPP-802 PSMA-6GS-CD137-6GS-HSA (bispecific antibody)
chain: EVQLLESGGGLVQPGGSLRLSCAASGFSFSSYALSWVRQAPGKGLEWVSSIGENDGTTDYAD[about 20 residues not written out]MNSLRVEDTAVYYCVKDGVHWGQGTLVTVSSGGGGSGGGGSGGGGSGGGGSGGGGSGGGGSEVQLVESGGGVVQPGGSLRLSCAASGFTFSNYGMHWVRQAPGKGLEWVAVISNDGNTKTYADSVKGRFTISRDNSKNTLYLQMNSLRAEDTAVYYCAQDETTTVTASYYFDYWGQGTLVTVSSGGGGSGGGGSGGGGSGGGGSGGGGSGGGGSEVQLVESGGGLVKPGGSLRLSCAASGFTFSNYNMNWVRQAPGKGLEWVSSISSAGTHIYYADSVKGRFTISRDNAKNSLYLQMNSLRAEDTAVYYCARDPHSTGWYKDFDYWGQGTLVTVSS
B1: the “Jurkat-CD137/CHO-PSMA Reporter Assay EC50” value stood at 2 nM.

B2: TPP-800 PSMA-6GS-CD137-6GS-HSA (bispecific antibody)
chain: EVQLLESGGGLVQPGGSLRLSCAASGFSFSSYALSWVRQAPGKGLEWVSSIGENDGTTDYAD[about 20 residues not written out]MNSLRVEDTAVYYCVKDGVHWGQGTLVTVSSGGGGSGGGGSGGGGSGGGGSGGGGSGGGGSEVQLVESGGGVVQPGGSLRLSCAASGFTFSNYGMHWVRQAPGKGLEWVAVISNDGNTKTYADSVKGRFTISRDNSKNTLYLQMNSLRAEDTAVYYCAQDETTTVTASYYFDYWGQGTLVTVSSGGGGSGGGGSGGGGSGGGGSGGGGSGGGGSEVQLVESGGGLVQPGRSLRLSCAASGFTFHHYAMHWVRQAPGKGLEWVSGISWNGNKITYADSVKGRFTISRDNAKNSLYLQMNSLRAEDTALYYCVRDSSLFIVGAPTFEHWGRGTLVTVSS
With B2, the “Jurkat-CD137/CHO-PSMA Reporter Assay EC50” value was found to be 8.5 nM.
